Test results as given in EP4814014A1, “BINDING MOLECULE AND ANTIBODY-DRUG CONJUGATE AND USE THEREOF” (priority 2023, dated 2025).

Tests used:
NCI-H1975 [1] = experiment: FACS binding of ADCs to NCI-H1975; type: cell-based, human; conditions: ADC, 200 nM or 40 nM, 5-fold diluted; FIG. 17
MDA-MB-468 [2] = experiment: Cell killing assay of ADCs (CCK8), MDA-MB-468; type: cell-based; conditions: Table 10A; Target cell: MDA-MB-468; 3-5 days
NCI-H1975 [3] = experiment: Cell killing assay of ADCs (CCK8), NCI-H1975; type: cell-based, human; conditions: Target cell: NCI-H1975
CDX models = experiment: In vivo efficacy of ADCs in CDX mouse models (overall); parameters: species or system BALB/c nu/nu mice; conditions: for tumor inhibition effects: single intravenous bolus injection on D0, better than ABBV399 and AZD9592, FIG. 21; for in vivo tumor inhibition effect: single i.v. dose
EBC-1 [4] = experiment: FACS binding of ADCs to EBC-1; type: cell-based, human; conditions: ADC, 200 nM or 40 nM, 5-fold diluted; FIG. 17
EBC-1 [5] = experiment: Cell killing assay of ADCs (CCK8), EBC-1; type: cell-based, human; conditions: Target cell: EBC-1
NCI-H1975 CDX = experiment: In vivo efficacy, NCI-H1975 CDX model; parameters: species or system BALB/c nu/nu mice
[6] = test system: NCI-H441 (lung adenocarcinoma cells) CDX; experiment: In vivo efficacy, NCI-H441 CDX model; parameters: species or system BALB/c nu/nu mice; conditions: day 45 after administration
EBC-1 CDX = experiment: In vivo efficacy, EBC-1 CDX model; parameters: species or system BALB/c nu/nu mice
MDA-MB-468 [7] = experiment: FACS binding of ADCs to MDA-MB-468; type: cell-based; conditions: ADC, 200 nM or 40 nM, 5-fold diluted; FIG. 17
MDA-MB-468 CDX = experiment: In vivo efficacy, MDA-MB-468 CDX model; parameters: species or system BALB/c nu/nu mice; conditions: day 42 after administration
FADU CDX = experiment: In vivo efficacy, FADU CDX model; parameters: species or system BALB/c nu/nu mice; conditions: at the same dose; versus AZD9592 and ABBV399
SW48 CDX = experiment: In vivo efficacy, SW48 CDX model; parameters: species or system BALB/c nu/nu mice; conditions: at the same dose; versus AZD9592 and ABBV399
human cMet on cells = molecular target: T1, human cMet on cells (human, UniProt P08581); experiment: FACS on EBC-1 cells
human cMet on cells, sequence (P08581 25-1390): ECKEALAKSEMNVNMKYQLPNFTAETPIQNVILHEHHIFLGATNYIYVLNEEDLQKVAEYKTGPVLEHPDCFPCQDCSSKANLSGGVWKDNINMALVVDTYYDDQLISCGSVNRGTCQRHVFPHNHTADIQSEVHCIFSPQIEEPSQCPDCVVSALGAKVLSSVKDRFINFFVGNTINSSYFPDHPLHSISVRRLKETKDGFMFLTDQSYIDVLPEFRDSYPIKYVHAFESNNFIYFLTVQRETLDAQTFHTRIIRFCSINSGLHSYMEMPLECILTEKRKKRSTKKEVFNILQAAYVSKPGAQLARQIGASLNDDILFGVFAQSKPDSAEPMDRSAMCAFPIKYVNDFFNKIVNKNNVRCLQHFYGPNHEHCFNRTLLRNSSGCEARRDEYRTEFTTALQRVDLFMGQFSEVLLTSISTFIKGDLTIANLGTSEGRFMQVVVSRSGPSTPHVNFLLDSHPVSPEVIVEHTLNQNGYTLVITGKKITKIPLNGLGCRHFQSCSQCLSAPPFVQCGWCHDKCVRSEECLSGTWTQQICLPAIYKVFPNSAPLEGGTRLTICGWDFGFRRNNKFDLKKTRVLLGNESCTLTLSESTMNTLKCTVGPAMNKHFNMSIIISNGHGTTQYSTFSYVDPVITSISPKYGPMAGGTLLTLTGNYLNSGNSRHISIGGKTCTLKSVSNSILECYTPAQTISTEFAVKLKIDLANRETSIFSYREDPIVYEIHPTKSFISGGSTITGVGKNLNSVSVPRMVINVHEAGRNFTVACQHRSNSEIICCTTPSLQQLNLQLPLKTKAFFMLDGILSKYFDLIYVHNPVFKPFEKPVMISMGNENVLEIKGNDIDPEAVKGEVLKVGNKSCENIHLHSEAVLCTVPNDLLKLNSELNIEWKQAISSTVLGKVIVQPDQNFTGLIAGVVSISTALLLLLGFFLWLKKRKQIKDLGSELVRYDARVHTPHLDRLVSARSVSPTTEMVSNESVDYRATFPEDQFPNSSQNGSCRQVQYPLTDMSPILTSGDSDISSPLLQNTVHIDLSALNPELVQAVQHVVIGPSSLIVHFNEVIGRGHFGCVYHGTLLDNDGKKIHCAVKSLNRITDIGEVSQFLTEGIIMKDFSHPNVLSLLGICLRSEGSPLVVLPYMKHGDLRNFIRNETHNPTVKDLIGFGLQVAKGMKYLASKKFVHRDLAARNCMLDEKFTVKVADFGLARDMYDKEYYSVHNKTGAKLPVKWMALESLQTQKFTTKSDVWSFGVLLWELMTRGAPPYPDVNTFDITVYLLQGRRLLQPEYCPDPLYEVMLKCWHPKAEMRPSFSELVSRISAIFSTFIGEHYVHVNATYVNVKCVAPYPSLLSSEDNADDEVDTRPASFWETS
T1 construct: whole, on cells; Cell lines: CHO-S-cMet, CHOK1-hucMet, EBC-1, MKN45, NCI-H1975; the cell line is named under assay; also called CHO-S-cMet; CHOK1-hucMet

[8] = molecular target: T2, human EGFR-his (ECD, Met1-Ser645) (human, UniProt P00533 part only); experiment: SPR, antigen amine-coupled on GLM chip, antibody injected, 1:1 model
T2 construct: range 1-645; Bought; range as printed includes Met1

[9] = molecular target: T3, cynomolgus monkey EGFR-his (ECD, Met1-Ser645) (cynomolgus monkey, UniProt A0A2K5WK39 1-645); experiment: as above
T3 construct: range 1-645; Bought; range as printed includes Met1

[10] = molecular target: T4, human cMet-his (ECD, Met1-Thr932) (human, UniProt P08581 25-932); experiment: as above
T4 construct: Bought; range as printed includes Met1

[11] = molecular target: T5, cynomolgus monkey cMet-his (ECD, Met1-Thr932) (cynomolgus monkey, UniProt A0A2K5UM36 25-932); experiment: as above
T5 construct: Bought; range as printed includes Met1

B1: V-20-Fc-PEG-EVC-MMAE: ADC of antibody V-20-Fc and linker-payload Mal-PEG8-EVC-PAB-MMAE (conjugate)
chain 1: EVQLVESGGGLVQPGGSLRLSCSASGTIIGTYTMAWYRQAPGKQREMVAIITPGGGSHHADSVKGRFTISRDNSKNTLYLQMSSLRAEDTAVYYCNAKARWGTTEYWGQGTLVTVSS[human IgG1 Fc with changes not printed]
chain 2: QSQLVESGGGLVKPGGSLRLSCVASGFTISRSIMSWYRQAPGKERDWVASIGSAGNTNYVDSVKGRFTISRDNAKNSLYLQMNSLRAEDTAVYYCKTTLAVSFSEYWGQGTLVTVSSGGGGSGGGGSEVQLVESGGGLVQPGGSLRLSCTASGNIFSSYHMGWFRQAPGKQREFIAYITTREITNYADSVKGRFTISRDNSKNTLYLQMNSLRAEDTAVYYCIADQSREIRRSWGQGTLVTVSS[human IgG1 Fc with changes not printed]
binding to NCI-H1975 cells (NCI-H1975 [1]): able to bind | IC50 (MDA-MB-468 [2]): 0.128 nM | IC50 (NCI-H1975 [3]; Table 10A, 3-5 days): 0.0934 nM | tumor inhibition effects (CDX models): strong tumor inhibition effects | binding to EBC-1 cells (EBC-1 [4]): able to bind | IC50 (EBC-1 [5]; Table 10A, 3-5 days): 0.155 nM

B2: V-23-Fc-VA-Exd (bispecific antibody)
chain 1: EVQLLESGGGLVQPGGSLRLSCAASGLTFSYYAMAWFRQAPGKEREFVAAINWNQGNTYNTDSVKGRFTISRDNSKNTVYLQMNSLTPEDTAVYYCAVRYNQASYLVARSSDYNYWGQGTLVTVSS[human IgG1 Fc with changes not printed]
chain 2: QSQLVESGGGLVKPGGSLRLSCVASGFTISRSIMSWYRQAPGKERDWVASIGSAGNTNYVDSVKGRFTISRDNAKNSLYLQMNSLRAEDTAVYYCKTTLAVSFSEYWGQGTLVTVSSGGGGSGGGGSEVQLVESGGGLVQPGGSLRLSCTASGNIFSSYHMGWFRQAPGKQREFIAYITTREITNYADSVKGRFTISRDNSKNTLYLQMNSLRAEDTAVYYCIADQSREIRRSWGQGTLVTVSS[human IgG1 Fc with changes not printed]
modifications: Mal-PEG8-VA-PAB-Exatecan on cysteine, average DAR 4.0 for the whole molecule; positions not given
tumor inhibition effect (NCI-H1975 CDX; day 29 after administration, 2 mg/kg): comparable to that of 4 mg/kg AZD9592 | efficacy versus AZD9592 (NCI-H1975 CDX; day 29 after administration, at the same dose): better efficacy than AZD9592 | binding to NCI-H1975 cells (NCI-H1975 [1]): able to bind | IC50 (NCI-H1975 [3]; Table 10B): 25.3 nM | in vivo tumor inhibition effect (CDX models; EBC-1, NCI-H1975, NCI-H441 and MDA-MB-468 CDX models, FIG. 22): better in vivo tumor inhibition effect than that of the positive control drug AZD9592 | tumor inhibition effect ([6]; 2 mg/kg): comparable to that of 8 mg/kg AZD9592 | efficacy versus AZD9592 ([6]; at the same dose): better efficacy than AZD9592 | efficacy versus AZD9592 (EBC-1 CDX; day 54 after administration, at a lower dose): better efficacy than AZD9592 | tumor elimination (EBC-1 CDX; day 54 after administration, high-dose): complete tumor elimination | binding to MDA-MB-468 cells (MDA-MB-468 [7]): able to bind | tumor volume change rate (MDA-MB-468 CDX; 2 mg/kg): -72% | tumor elimination (MDA-MB-468 CDX; 4 mg/kg and 8 mg/kg): completely eliminated | IC50 (EBC-1 [5]; Table 10B): 0.138 nM

B3: V-23-Fc-Gluc-Exd (bispecific antibody)
chain 1: EVQLLESGGGLVQPGGSLRLSCAASGLTFSYYAMAWFRQAPGKEREFVAAINWNQGNTYNTDSVKGRFTISRDNSKNTVYLQMNSLTPEDTAVYYCAVRYNQASYLVARSSDYNYWGQGTLVTVSS[human IgG1 Fc with changes not printed]
chain 2: QSQLVESGGGLVKPGGSLRLSCVASGFTISRSIMSWYRQAPGKERDWVASIGSAGNTNYVDSVKGRFTISRDNAKNSLYLQMNSLRAEDTAVYYCKTTLAVSFSEYWGQGTLVTVSSGGGGSGGGGSEVQLVESGGGLVQPGGSLRLSCTASGNIFSSYHMGWFRQAPGKQREFIAYITTREITNYADSVKGRFTISRDNSKNTLYLQMNSLRAEDTAVYYCIADQSREIRRSWGQGTLVTVSS[human IgG1 Fc with changes not printed]
modifications: Mal-Gly-Exatecan-D-glucuronic acid on cysteine, average DAR 4.0 for the whole molecule; positions not given
notes: also called V-23-Fc-Glu-Exd
efficacy versus positive control drugs (NCI-H1975 CDX; at the same dose, versus AZD9592 and ABBV399): better efficacy than the positive control drugs | binding to NCI-H1975 cells (NCI-H1975 [1]): able to bind | efficacy versus positive control drugs (FADU CDX): better efficacy than the positive control drugs | IC50 (NCI-H1975 [3]; Table 10B): 34 nM | in vivo tumor inhibition effect (CDX models; SW48, FADU, EBC-1 and NCI-H1975 CDX models, FIG. 23): better in vivo tumor inhibition effect than the positive control drug | tumor elimination (EBC-1 CDX; day 36 after administration, 3 mg/kg): completely eliminated | efficacy versus AZD9592 (EBC-1 CDX; day 36 after administration, low dose (1 mg/kg)): better efficacy than AZD9592 | binding to MDA-MB-468 cells (MDA-MB-468 [7]): able to bind | IC50 (EBC-1 [5]; Table 10B): 0.129 nM | efficacy versus positive control drugs (SW48 CDX): better efficacy than the positive control drugs

B4: V-23-Fc-PEG-EVC-MMAE: ADC of antibody V-23-Fc and linker-payload Mal-PEG8-EVC-PAB-MMAE (conjugate)
chain 1: EVQLLESGGGLVQPGGSLRLSCAASGLTFSYYAMAWFRQAPGKEREFVAAINWNQGNTYNTDSVKGRFTISRDNSKNTVYLQMNSLTPEDTAVYYCAVRYNQASYLVARSSDYNYWGQGTLVTVSS[human IgG1 Fc with changes not printed]
chain 2: QSQLVESGGGLVKPGGSLRLSCVASGFTISRSIMSWYRQAPGKERDWVASIGSAGNTNYVDSVKGRFTISRDNAKNSLYLQMNSLRAEDTAVYYCKTTLAVSFSEYWGQGTLVTVSSGGGGSGGGGSEVQLVESGGGLVQPGGSLRLSCTASGNIFSSYHMGWFRQAPGKQREFIAYITTREITNYADSVKGRFTISRDNSKNTLYLQMNSLRAEDTAVYYCIADQSREIRRSWGQGTLVTVSS[human IgG1 Fc with changes not printed]
binding to NCI-H1975 cells (NCI-H1975 [1]): able to bind | IC50 (MDA-MB-468 [2]): 0.0486 nM | IC50 (NCI-H1975 [3]; Table 10A, 3-5 days): 0.046 nM | tumor inhibition effects (CDX models): strong tumor inhibition effects | binding to EBC-1 cells (EBC-1 [4]): able to bind | IC50 (EBC-1 [5]; Table 10A, 3-5 days): 0.141 nM

B5: anti-cMet monoepitopic M-3 molecule (Fc fusion)
chain: EVQLVESGGGLIQAGGSLRLSCTASGNIFSSYHMGWFRQAPGKQREFIAYITTREITNYADSVKGRFTISRDNSKNTVYLQMNNLRSEDTAVYYCIADQSREIRRSWGQGTLVTVSS[human IgG1 Fc with changes not printed]
notes: Symmetrical double-chain form
binding result (human cMet on cells): binds

B6: V-26-Fc (bispecific antibody)
chain 1: QVQLVESGGGLVQPGGSLRLSCAASGRTGSLHAMGWFRQAPGKERERVATLQLSDVSAVTADSVKGRFTISTDNSKNSVYLQMNSLRAEDTAVYYCTASRSPSGIRYYKPDYWGQGTLVTVSS[human IgG1 Fc with changes not printed]
chain 2: QSQLAESGGGLVQSGGSLGLSCVASGFTISRSIMSWYRQPPGKERDWVASIGSAGNTNYVDSVKGRFTISRDVAKNTVYLQMNSLKPEDTAVYYCKTTLAVSFSEYWGQGTQVTVSSGGGGSGGGGSEVQLVESGGGLIQAGGSLRLSCTASGNIFSSYHMGWFRQAPGKQREFIAYITTREITNYADSVKGRFTISRDNSKNTVYLQMNNLRSEDTAVYYCIADQSREIRRSWGQGTLVTVSS[human IgG1 Fc with changes not printed]
notes: Double-chain trispecific anti-EGFR/cMet antibody
Kd [8]: 242000 nM | koff [8]: 0.0988 s⁻¹ | Kd [9]: 3740 nM | koff [9]: 0.219 s⁻¹ | kon [9]: 58700 M⁻¹ s⁻¹ | Kd [10]: 1.34 nM | koff [10]: 9.7e-05 s⁻¹ | kon [10]: 72600 M⁻¹ s⁻¹ | Kd [11]: 0.73 nM | koff [11]: 0.000123 s⁻¹ | kon [11]: 168000 M⁻¹ s⁻¹

B7: V-26-Fc-PEG-EVC-MMAE: ADC of antibody V-26-Fc and linker-payload Mal-PEG8-EVC-PAB-MMAE (conjugate)
chain 1: QVQLVESGGGLVQPGGSLRLSCAASGRTGSLHAMGWFRQAPGKERERVATLQLSDVSAVTADSVKGRFTISTDNSKNSVYLQMNSLRAEDTAVYYCTASRSPSGIRYYKPDYWGQGTLVTVSS[human IgG1 Fc with changes not printed]
chain 2: QSQLAESGGGLVQSGGSLGLSCVASGFTISRSIMSWYRQPPGKERDWVASIGSAGNTNYVDSVKGRFTISRDVAKNTVYLQMNSLKPEDTAVYYCKTTLAVSFSEYWGQGTQVTVSSGGGGSGGGGSEVQLVESGGGLIQAGGSLRLSCTASGNIFSSYHMGWFRQAPGKQREFIAYITTREITNYADSVKGRFTISRDNSKNTVYLQMNNLRSEDTAVYYCIADQSREIRRSWGQGTLVTVSS[human IgG1 Fc with changes not printed]
binding to NCI-H1975 cells (NCI-H1975 [1]): able to bind | IC50 (MDA-MB-468 [2]): 0.484 nM | IC50 (NCI-H1975 [3]; Table 10A, 3-5 days): 0.047 nM | tumor inhibition effects (CDX models): strong tumor inhibition effects | binding to EBC-1 cells (EBC-1 [4]): able to bind | IC50 (EBC-1 [5]; Table 10A, 3-5 days): 0.132 nM
